SMILES strings stand for the structures.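 Compound exposure: 48 hours, 5 concentrations, 96-well plates. At the GI50, growth is halved. TGI: total growth inhibition.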 A value given as a limit tells only on which side of the number the result lay.

The experiment has as its system NCI-H322M lung. The experiment is described as follows: NCI-60 cell line screen, 48 h.
`O=C(C=Nc1ccccc1C(=O)[O-])c1cccs1.O=C(C=Nc1ccccc1C(=O)[O-])c1cccs1.[Cu+2]` gave a TGI above 100 µM.

`CCn1c(SCC(=O)NNC(=S)Nc2ccc(F)cc2)nc2ccccc2c1=O` came in with a TGI above 100 µM.

In turn, `CCCCCCCCCCCCNC1(C)CNCCCNCCNCCCNC1` came in with a TGI of 3.32 µM.

For the compound `CC12CC3CC(C)(C1)CC(N=[N+]=[N-])(C3)C2`, the TGI is above 100 µM.

`C[C@@H]1OC2(O)[C@@H]3CCCN3C(=O)N(Cc3ccccc3)N2C1=O` (stereo partly drawn) yielded a TGI above 100 µM.

Regarding `COc1ccccc1CNCc1nc2ccccc2[nH]1`, the TGI is above 100 µM.

In the case of `CCCCCCCCCCCC(=O)OCC1OC(n2cc(F)c(=O)[nH]c2=O)C(N)C(O)C1O` (stereo not drawn), the TGI is above 100 µM.

Consider `Cc1ccnc2nc3[nH]c4ccccc4c3cc12`, for which the TGI is above 100 µM.

Compound `CCCCCCCCCC(=O)OCC1OC(n2cc(F)c(=O)[nH]c2=O)C(N)C(OC(=O)CCCCCCCCC)C1O` (stereo not drawn) showed a TGI of 40.6 µM.

For the compound `CSc1ccc(-c2cc(-c3nc4ccccc4[nH]3)nc3[nH]c(-c4nc5ccccc5[nH]4)cc(=O)c23)cc1`, the TGI is above 100 µM.

Compound `COC(=O)[C@]12CSC[C@H]1C[C@H](c1ccc(N(C)C)cc1)N2` displayed a TGI above 100 µM.

`O=C(CCCN1CC=C(n2c(=O)[nH]c3ccccc32)CC1)c1cccs1` yielded a TGI above 100 µM.

Take `CCOn1cc(C2=C(c3c[nH]c4ccccc34)C(=O)NC2=O)c2ccccc21`: the GI50 was 0.258 µM and the TGI was 3.99 µM.

On to `Cc1ccc(S(=O)(=O)n2cc(C(=O)C(=O)Nc3ccncc3)c3ccccc32)cc1`, for which the GI50 is above 100 µM and the TGI is above 100 µM.

As for `COc1cnc2c(c1)C(=O)c1c-2n(CCCN2CCN(C)CC2)c(=O)c2cc(Cl)ccc12`, the GI50 is 4.34 µM and the TGI was found to be 25.7 µM.

In turn, `Cc1cc2nc3c(C#N)c(-c4ccccc4)cc(Nc4ccc(F)cc4)n3c2cc1C` came in with a TGI above 100 µM.

`O=C1OC2(c3ccc(O)cc3Oc3cc(O)ccc32)c2c1c(-c1ccccc1)c(-c1ccccc1)c(-c1ccccc1)c2-c1ccccc1` yielded a TGI of 55.4 µM.

`O=C(CC1(O)C(=O)Nc2c(Cl)cc(Cl)cc21)c1ccc2ccccc2c1` (stereo not drawn) showed a TGI of 26.2 µM.

`CC1(C)N=C(N)N=C(N)N1c1cccc(OCc2cccc([N+](=O)[O-])c2)c1` returned a TGI above 100 µM.

As to `CCCCc1ccc(N2C(=O)c3cccnc3S2(=O)=O)cc1`, the TGI was above 100 µM.

In the case of `Cn1c2cccc3nnc4cccc(c4c32)n1C`, the TGI is above 100 µM.

The compound `COc1ccc(/C(Cl)=C(\C=O)c2ccc(Cl)c(Cl)c2)cc1OC` displayed a TGI of 18.4 µM.

`Cc1ncc([N+](=O)[O-])n1CCNC(=O)CCn1ccnc1[N+](=O)[O-]`: the TGI is above 100 µM.

Turning to `CN1CCN(Cc2ccc(NC(=O)c3cncc(C#Cc4c(N)ncc5cc(F)ccc45)c3)cc2C(F)(F)F)CC1`, the GI50 is 2.82 µM and the TGI is 9.54 µM.

`Nc1ccc(C(=O)NN2C(=O)C(Cl)C2c2ccccc2O)cc1` (stereo not drawn) returned a TGI above 100 µM.

The compound `O=C(NCC#CCO)C(F)(F)F` gave a TGI above 100 µM.

Take `Cc1ccc(S(=O)(=O)N/N=C(\C(=O)Nc2cccc([N+](=O)[O-])c2)c2nc3ccc([N+](=O)[O-])cc3[nH]c2=O)cc1`: the TGI is above 100 µM.

For `COC(=O)c1cc(C#N)[nH]c1-c1cccs1`, the TGI was above 100 µM.

With `C/C(=C\c1c[nH]c2ccccc12)[N+](=O)[O-]`, the GI50 was 14.2 µM and the TGI is 27.9 µM.

Take `CC(C)(O)[C@H]1[C@@H]2OC(=O)[C@H]1[C@]1(O)C[C@H]3OC34C(=O)O[C@H]2[C@@]41C` (stereo partly drawn) (tested in a mixture with another compound): the TGI is above 100 µM.

The compound `COC(=O)C1=CC2OC13CC1CCC3(C2=O)C1(C)C` (stereo not drawn) had a TGI of 33.6 µM.

The compound `COC1CC2CCC(C)[C@](O)(O2)C(=O)C(=O)N2CCCCC2C(=O)OC(C(C)CC2CCC(O)C(OC)C2)CC(=O)C(C)C=C(C)C(OC(=O)CN(C)C)C(OC)C(=O)C(C)CC(C)/C=C/C=C/C=C\1C` (stereo partly drawn) gave a TGI of 23.1 µM.

As for `CCOC(=O)C1C(c2ccc([N+](=O)[O-])cc2)NC(c2ccc([N+](=O)[O-])cc2)C(C(=O)OC)S1(=O)=O` (stereo not drawn), the TGI was above 100 µM.

Values taken from PubChem BioAssay (NCI).
